Data reported in US20090325873A1, “HUMAN GLP-1 MIMETIBODIES, COMPOSITIONS, METHODS AND USES” (CENTOCOR, INC., priority 2006, published 2009).
Where “and” joins values, the source holds several entries; their conditions need not be identical. Equal entries are not always repeated.

Legend:
rat GLP-1 receptor = target: T1, rat GLP-1 receptor (Rattus norvegicus, UniProt P32301); assay: LANCE cAMP assay in INS-1E cells; type: cell-based; conditions: fit to a hyperbola
T1 construct: INS-1E cells, a rat insulinoma cell line expressing the rat GLP-1 receptor; endogenous in cells; host or cells: INS-1E rat insulinoma cells
T1 sequence (P32301 22-463): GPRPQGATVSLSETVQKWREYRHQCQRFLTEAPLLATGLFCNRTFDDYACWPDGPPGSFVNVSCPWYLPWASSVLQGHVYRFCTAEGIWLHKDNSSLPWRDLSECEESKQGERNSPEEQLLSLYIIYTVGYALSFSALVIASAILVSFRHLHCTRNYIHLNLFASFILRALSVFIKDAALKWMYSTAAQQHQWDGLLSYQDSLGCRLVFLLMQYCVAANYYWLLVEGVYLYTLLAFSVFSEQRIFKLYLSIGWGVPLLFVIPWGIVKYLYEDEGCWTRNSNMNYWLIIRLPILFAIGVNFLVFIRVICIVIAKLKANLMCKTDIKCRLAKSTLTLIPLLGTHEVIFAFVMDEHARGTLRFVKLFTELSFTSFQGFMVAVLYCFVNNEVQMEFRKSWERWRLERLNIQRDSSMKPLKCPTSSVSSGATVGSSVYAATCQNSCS

INS-1E cells = assay: Insulin secretion assay in INS-1E cells; type: cell-based, rat; conditions: 25 nM, KRBH with 6.5 mM glucose, two hours
Protocol: A further insulin secretion assay was developed to measure functional in vitro activity of the GLP-1MMB of SEQ ID NO 4. • Cell culture: INS-1E cells were cultured in RPMI 1640/10% FBS/1% L-glutamine/1% Sodium Pyruvate/1% Non-essential Amino Acids/50 μM β-Mercaptoethanol and maintained at 37° C. in a humidified incubator with 5% CO2. Data was analyzed in GraphPad PRISM, version 4.03. • Insulin Secretion Assay: INS-1E cells were plated at 100,000 cells/well in 96-well plates (Costar 3610) and allowed to recover 4 days in normal growth media. The cells were washed twice and 0.1 ml of KRBH buffer/3 mM glucose was added. The cells were allowed to equilibrate in this buffer for 2 hours. The media was removed and 0.12 ml of GLP-1MMB of SEQ ID NO 4 in KRBH with 6.5 mM glucose was added per well. Twenty microliters of supernatant was removed per well for the T=0 time point. The cells were incubated for two hours at 37° C. at 5% CO2 and twenty microliters of supernatant were removed per well. Supernatants were frozen at −20° C. until the insulin ELISA was performed. Insulin concentrations were determined using a the Ultra Sensitive Rat Insulin ELISA kit (Crystal Chem). • Results: The data was plotted as the amount of insulin secreted at each concentration of GLP-1MMB of SEQ ID NO 4 (FIG. 19).

[1] = Pharmacokinetics in rats, single sc or iv dose; type: in vivo; conditions: SD rats, 3 mg/kg, mean
Protocol: Pharmacokinetics in rats: Sprague-Dawley-derived rats were treated with a single subcutaneous or intravenous dose of GLP-1 MMB of SEQ ID NO 4 (3.0 mg/kg, lot #8833173) (1). Approximately 300 μl of blood were collected at various times following dosing in sodium citrate (3.8%) containing protease inhibitors (Roche Complete EDTA free, Roche Applied Science, Indianapolis, Ind.) and DPP4 inhibitors (Linco, St. Charles, Mo.). Plasma was isolated and stored at −80° until samples could be analyzed. The concentration of intact GLP-1 MMB of SEQ ID NO 4 was measured using a mesoscale discovery (MSD) technology. Briefly, plasma samples were serially diluted by BioMek Fx for a total of 4 dilutions, neat, 1:8, 1:64 and 1:512. Identical standard curves in neat plasma were included on each plate. GLP-1MMB of SEQ ID NO 4 was captured on MSD plates by biotinylated monoclonal antibody (CNTO1626) designed to detect intact N-terminus of GLP-1MMB of SEQ ID NO 4. Ruthenium labeled monoclonal antibody recognizing linker region on GLP-1MMB of SEQ ID NO 4 (CNTO712) were added for detection and the luminescence responses were determined using the MSD sector imager 6000 reader. GLP-1MMB of SEQ ID NO 4 level was calculated using sigmoidal dose-response curve (GraphPad PRISM).
Data analysis: Non-compartmental analysis (NCA) was employed to calculate the pharmacokinetic parameters of GLP-1MMB of SEQ ID NO 4 (WinNonlin, Version 5.1, Pharsight Corporation, Mountain View, Calif.). The maximum serum concentration, Cmax and the time to reach Cmax (Tmax), were obtained from inspection of the serum concentration vs. time profiles. The area under the concentration curve (AUC) from time 0 to the last time point with quantifiable levels of GLP-1MMB of SEQ ID NO 4 was calculated (AUC (0-7d) for rat, AUC (0-21d) for monkey), as well as the AUC from time 0 to infinity. The AUC values were obtained by linear trapezoidal integration. The terminal rate constant (λz) was determined by least-squares regression analysis of the log-linear portion of the terminal phase. The terminal half-life, t½, was calculated from the ratio of 0.693 and λz.

wild type mice [2] = assay: Glucose tolerance test (ipGTT) in wild type mice; type: in vivo; conditions: single iv GLP-1 MMB 1 mg/kg, exendin-4 0.07 mg/kg
wild type mice [3] = assay: Gastric emptying in wild type mice; type: in vivo; conditions: iv GLP-1 MMB 1 mg/kg, exendin-4 0.07 mg/kg
Protocol: (§1) Materials/Methods: Animals: Male GLP-1R−/− and age matched wild type mice were randomized into three treatment groups (n=5) based on body weight and fasting blood glucose. […] The next morning mice were re-fed for 1 h, food intake was recorded and the mice were deprived of food for the rest of the study. Mice were dosed intravenously as discussed above. Two hours post-dosing mice were euthanized. The stomach was exposed by laparotomy, ligated at both the pylorus and cardia and removed. The stomach content wet weight was measured. Equation 1 was used to calculate the percent of food remaining in the stomach.
(§2) (Stomach Content Wet Weight(g)/Food Intake(g))*100 Equation (1)

GLP-1R−/− mice = assay: Gastric emptying in GLP-1R−/− mice; type: in vivo; conditions: iv GLP-1 MMB 1 mg/kg, exendin-4 0.07 mg/kg
Protocol: as §1, §2

B1: GLP-1 MMB of SEQ ID NO 4: GLP-1 mimetibody of SEQ ID NO 4 (protein, listed as Homo sapiens)
chain: HSEGTFTSDVSSYLEGQAAKEFIEWLVKGRGGGSGGGSGTLVTNSS[human IgG4 Fc with S228P F234A L235A (EU numbers) omitted]
With B1 the “maximal amount of secreted cAMP” value (rat GLP-1 receptor) was 48.3 nM, the “amount of insulin secreted into the supernatant” value (INS-1E cells) was “significantly increased the amount of insulin secreted” and the “AUC (0-7 d)” value ([1]; iv) was 23.61 µg·days/mL. The AUCinf ([1]; iv) was 23.86 µg·days/mL, the Cl ([1]; iv) was 5.2458 mL/h/kg and the Cmax ([1]; iv) was 53910 ng/mL. For the same molecule, the Vss ([1]; iv) was 0.11007 L/kg, the t½ ([1]; iv) was 36 h and 35.5 h and the “AUC (0-7 d)” value ([1]; sc) was 5.04 µg·days/mL. For the same molecule, the AUCinf ([1]; sc) was 5.20 µg·days/mL, the Cmax ([1]; sc) was 2290 ng/mL and the Tmax ([1]; sc) was 19.9 h. For the same molecule, the t½ ([1]; sc) was 40.8 h and 41.5 h, the “area under the curve (AUC) of the ipGTT” value (wild type mice [2]) was “statistically significant reduction in the AUC” and the “stomach content (percent of food remaining) 2 h after dosing vs CNTO1996” value (wild type mice [3]) was “statistically significant increase in stomach content”. The “gastric emptying 2 h after dosing” value (GLP-1R−/− mice) was “no effect on gastric emptying”.
